Data reported in PubChem BioAssay AID540267 (National Center for Advancing Translational Sciences (NCATS), 2011).
In all, about 340,000 compounds went through this assay and about 530 (0.16%) were called active. Inconclusive means that the source gave no clear call. Such entries were picked first, then a sample of the others. Cut-off read from the data, not from the text of the source: active = activity change below about -80%; inconclusive = between about -30% and that limit; inactive = weaker than that.

Test: Small Molecules that selectively kill Giardia lamblia: qHTS;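 note: parasites exposed to compound for two days anaerobically before the ATP read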
Conditions: Giardia lamblia trophozoite viability; at 7.66 µM; active compounds read low
In short: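 Anaerobic 48 hrs incubation at 37 deg C of 100 trophozoites/well with test compounds; ATPLite 1-Step luminescence, 15-30 min RT, reports cellular ATP as viability.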
% is set by controls: 0 for no effect and ±100 for the full control effect.

Question: For `CC1CCCCC1NC(=O)CN1C(=O)NC(C)(c2ccc(OC(F)F)cc2)C1=O` (stereo not given), which activity change is on record?
Answer: The activity change was inactive: 1.05%.

Question: For `N/C(=N\c1nc2ccccc2o1)NC(=O)/C=C/c1ccccc1`, which activity change is on record?
Answer: The activity change was inactive: -11.6%.

Question: Which activity change does the source give for `Cc1cc(Cl)ccc1NC(=O)CN1C(=O)C(=O)N(C2CCCC2)C1=O` here?
Answer: Its activity change is inactive: 0.733%.

Question: For `COC(=O)c1cc2c(ccn2-c2ccc(F)cc2)n1Cc1ccc(OC)cc1`, which activity change is on record?
Answer: Its activity change is inactive: -1.77%.

Question: With `COc1cccc(S(=O)(=O)Nc2ccc(C(=O)Nc3ccncc3)cc2)c1` as the compound, how does the activity change read?
Answer: The activity change was inactive: -2.28%.

Question: With `CC(C)C12CN3CCN(CC(C3)/C1=N\NC(=O)Nc1ccccc1)C2` as the compound, how does the activity change read?
Answer: The activity change was inconclusive: -39.5% [inhibitor].

Question: Which activity change does the source give for `O=C(Nc1ccc2oc(-c3ccccc3F)nc2c1)c1ccc([N+](=O)[O-])o1` here?
Answer: Its activity change is active: -96.2%.

Question: For `COC(=O)c1ccc(-n2c(CCC(=O)O)ccc2-c2ccc(C)cc2)cc1`, which activity change is on record?
Answer: The activity change was inconclusive: -44.5% [inhibitor].

Question: With `COc1cc(OC)c(C(=O)N(Cc2ccco2)Cc2cccs2)cc1OC` as the compound, how does the activity change read?
Answer: Its activity change is inactive: 16.1%.

Question: Which activity change does the source give for `CCN1CCN(C(=S)Nc2sc(C)c(-c3ccccc3)c2C(=O)OC)CC1` here?
Answer: The activity change was inactive: -12.8%.

Question: Which activity change does the source give for `COC(=O)c1ccc(/C=N/Nc2nc(C)c(C)s2)cc1` here?
Answer: Its activity change is inactive: -0.171%.

Question: With `Nc1nc(Cl)nc2c1ncn2C1CC(O)C(CO)O1` (stereo not given) as the compound, how does the activity change read?
Answer: Its activity change is inconclusive: -67.3% [inhibitor].

Question: With `Cc1cnc(NS(=O)(=O)c2ccccc2)c(C)n1` as the compound, how does the activity change read?
Answer: The activity change was inconclusive: -33.6% [inhibitor].

Question: For `CN(c1ccc(C(=O)Nc2ccc3c(c2)OCO3)cc1)S(C)(=O)=O`, which activity change is on record?
Answer: The activity change was inconclusive: -32.4% [inhibitor].

Question: With `CN(C)c1ccc(/C=C(/NC(=O)c2ccccc2)C(=O)N/N=C/c2ccc([N+](=O)[O-])c(O)c2)cc1` as the compound, how does the activity change read?
Answer: The activity change was inconclusive: -56.3% [inhibitor].

Question: Which activity change does the source give for `Cc1ccc(O)c(C(=O)c2cc(C#N)c(=O)n(C(C)c3ccccc3)c2)c1` (stereo not given) here?
Answer: The activity change was inactive: -6.6%.

Question: For `CC(NC(=O)c1ccc([N+](=O)[O-])o1)C1CC2CCC1C2` (stereo not given), which activity change is on record?
Answer: The activity change was inconclusive: -75.7% [inhibitor].

Question: For `CCCSc1ccc2nc(NC(=O)OC)[nH]c2c1`, which activity change is on record?
Answer: The activity change was inconclusive: -52.7% [inhibitor].

Question: For `COc1ccc(C(=O)CC(=O)C(=O)Nc2cccc(F)c2)cc1`, which activity change is on record?
Answer: The activity change was inconclusive: -32.2% [inhibitor].

Question: Which activity change does the source give for `Cc1ccc(OCC(=O)c2cc(C)n(-c3ccccc3)c2C)c([N+](=O)[O-])n1` here?
Answer: Its activity change is active: -102%.

Question: With `Cc1cc(Nc2ccc(C(C)C)cc2)n2ncnc2n1` as the compound, how does the activity change read?
Answer: Its activity change is inactive: -7.44%.

Question: Which activity change does the source give for `COc1cc(/C=C2\CCc3c2nc2ccccc2c3C(=O)O)cc(OC)c1OC` here?
Answer: Its activity change is inconclusive: -39.8% [inhibitor].

Question: Which activity change does the source give for `Cc1ccc(S(=O)(=O)N2CCCOC2CNC(=O)C(=O)NCc2ccco2)cc1` (stereo not given) here?
Answer: Its activity change is inconclusive: -30% [inhibitor].

Question: For `O=C(O)c1ccc(COc2ccccc2/C=C2\NC(=O)N(Cc3ccccc3)C2=O)cc1`, which activity change is on record?
Answer: The activity change was inactive: -2.98%.

Question: For `COc1ccc2c3n(nc2c1)CCN=C3c1ccc(C)cc1`, which activity change is on record?
Answer: The activity change was inconclusive: -30.9% [inhibitor].

Question: For `CCN(CC(=O)N1CCCC1)S(=O)(=O)c1ccccc1`, which activity change is on record?
Answer: The activity change was inconclusive: -31.6% [inhibitor].

Question: Which activity change does the source give for `Cc1ccc2cc(C(c3nnnn3CC3CCCO3)N3CCCC4(CCCCC4)C3)c(=O)[nH]c2c1` (stereo not given) here?
Answer: Its activity change is inactive: 7.59%.

Question: Which activity change does the source give for `CCN(C(=O)c1cccc(Br)c1)c1ccccc1` here?
Answer: Its activity change is inconclusive: -38.4% [inhibitor].

Question: With `COc1ccc(C(=O)N=c2nc3ccccn3s2)cc1` as the compound, how does the activity change read?
Answer: The activity change was inconclusive: -65.8% [inhibitor].

Question: For `Cc1nccc(-c2cccc(N/N=C(\C#N)C(=O)c3ccccc3)c2)n1`, which activity change is on record?
Answer: The activity change was inconclusive: -34.3% [inhibitor].

Question: With `CC(C)C(=O)Nc1ccc2nn(-c3ccc(F)cc3)nc2c1` as the compound, how does the activity change read?
Answer: Its activity change is inconclusive: -43.8% [inhibitor].

Question: With `Oc1ccc(/C=C/c2ccc3ccccc3n2)cc1` as the compound, how does the activity change read?
Answer: Its activity change is inconclusive: -48.4% [inhibitor].

Question: Which activity change does the source give for `CCOc1ccc(C(=O)NC(=S)N(Cc2ccccc2)Cc2ccccc2)cc1` here?
Answer: Its activity change is inactive: -12.5%.

Question: For `COc1ccc(CONc2ncnc3nonc23)cc1[N+](=O)[O-]`, which activity change is on record?
Answer: The activity change was inconclusive: -40.9% [inhibitor].

Question: With `O=C(Nc1nc2ccccc2[nH]1)c1ccccc1` as the compound, how does the activity change read?
Answer: The activity change was inconclusive: -65% [inhibitor].

Question: With `N=C(N)SCc1ncccc1O` as the compound, how does the activity change read?
Answer: The activity change was inactive: -24.2%.

Question: With `COC(=O)c1nc(N2CCN(S(=O)(=O)c3ccc(C)cc3)CC2)c2ccccc2n1` as the compound, how does the activity change read?
Answer: The activity change was inconclusive: -39.7% [inhibitor].

Question: Which activity change does the source give for `CC1(C)Cc2cccc(OCC(=O)Nc3cc(S(C)(=O)=O)ccc3Cl)c2O1` here?
Answer: Its activity change is inconclusive: -32.6% [inhibitor].

Question: For `O=C(NNS(=O)(=O)c1ccc(Br)cc1)c1sccc1-n1cccc1`, which activity change is on record?
Answer: The activity change was inconclusive: -35.3% [inhibitor].

Question: Which activity change does the source give for `c1ccc(-c2noc(-c3ccc4c(c3)OCO4)n2)nc1` here?
Answer: The activity change was inconclusive: -73.7% [inhibitor].
